Measurements reported in a collection of fitness landscapes (doi:10.1016/j.celrep.2020.107928).
In all, about 81,000 sequences were measured (“one-hybrid fitness for binding parS DNA”: median about -0.17, highest 2% from about 0.51 on). The list shows a part of the results.

B1: Caulobacter ParB omega fusion; a variant is named by its letters at X, in order, B8GW30 (parent)
chain: MESVVVGEPGMSEGRRGLGRGLSALLGEVDAAPAQAPGEQLGGSREAPIEILQRNPDQPRRTFREEDLEDLSNSIREKGVLQPILVRPSPDTAGEYQIVAGERAWRAAQRAGLKTVPIMVRELDDLAVLEIGIIENVQRADLNVLEEALSYKVLMEKFERTQENIAQTIGKSXSHVANXMRLLXLPDEVQSYLVSGELTAXHARAIAAAADPVALAKQIIEGGLSVRETEALARKAPNLSAGKSKGGRPPRVKDTDTQALESDLSSVLGLDVSIDHRGSTGTLTITYATLEQLDDLCNRLTRGI

Variants of: B1
Assay: one-hybrid fitness for binding parS DNA (scaled: cognate 1, non-cognate 0); higher = stronger binding
Conditions: with parS DNA site
Summary of the method: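 Bacterial one-hybrid selection in E. coli USO rpoZ- hisB- pyrF- with a HIS3 reporter carrying the site 19 bp from the promoter, screening Caulobacter ParB libraries with four specificity codons randomised (NNS). Cells grew 48 hours at 37°C on M9-minus-histidine plus 0.1 mM IPTG and 5 mM 3-AT. Plasmids before and after selection were Illumina-sequenced, three replicate libraries pooled, and variants under 10 reads dropped. Fitness is the log change in variant-to-wild-type read ratio, rescaled to cognate 1, non-cognate 0.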

| Variant | one-hybrid fitness for binding parS DNA |
| --- | --- |
| KLER | ≤ 0.2 |
| AEPW | ≤ 0.2 |
| PCGV | ≤ 0.2 |
| VFGR | ≤ 0.2 |
| SIIE | ≤ 0.2 |
| LIFG | ≤ 0.2 |
| QKNW | ≤ 0.2 |
| DARR | ≤ 0.2 |
| RVYR | ≤ 0.2 |
| MTSG | ≤ 0.2 |
| SKCC | ≤ 0.2 |
| VTDT | ≤ 0.2 |
| GEAN | ≤ 0.2 |
| DSFC | ≤ 0.2 |
| WSVR | ≤ 0.2 |
| PSRQ | ≤ 0.2 |
| HMNG | ≤ 0.2 |
| AMPS | ≤ 0.2 |
| SDHT | ≤ 0.2 |
| YYMS | ≤ 0.2 |
| LEHS | ≤ 0.2 |
| HMLD | ≤ 0.2 |

| Variant | one-hybrid fitness for binding parS DNA |
| --- | --- |
| KNIS | ≤ 0.2 |
| KIDC | ≤ 0.2 |
| RLRI | ≤ 0.2 |
| TKFP | ≤ 0.2 |
| TTGV | ≤ 0.2 |
| TQQC | ≤ 0.2 |
| WDPG | ≤ 0.2 |
| RYFP | ≤ 0.2 |
| TLNI | ≤ 0.2 |
| QHHH | ≤ 0.2 |
| PWNL | ≤ 0.2 |
| RKPK | ≤ 0.2 |
| CPNV | ≤ 0.2 |
| HPIT | ≤ 0.2 |
| NEAF | ≤ 0.2 |
| RLTP | ≤ 0.2 |
| VTRI | ≤ 0.2 |
| VMYS | ≤ 0.2 |
| QYHP | ≤ 0.2 |
| VSLG | ≤ 0.2 |
| QDAA | ≤ 0.2 |
| QQEI | ≤ 0.2 |

| Variant | one-hybrid fitness for binding parS DNA |
| --- | --- |
| QRFT | ≤ 0.2 |
| VLPM | ≤ 0.2 |
| GFMG | ≤ 0.2 |
| NEHC | ≤ 0.2 |
| PSCM | ≤ 0.2 |
| WKFS | ≤ 0.2 |
| RGSI | ≤ 0.2 |
| WHTG | ≤ 0.2 |
| QVDH | ≤ 0.2 |
| TECS | ≤ 0.2 |
| KNYY | ≤ 0.2 |
| HNEW | ≤ 0.2 |
| GTTR | ≤ 0.2 |
| PDDT | ≤ 0.2 |
| AAHK | ≤ 0.2 |
| NWHW | ≤ 0.2 |
| GVPH | ≤ 0.2 |
| FSDD | ≤ 0.2 |
| ENRN | ≤ 0.2 |
| NGKT | ≤ 0.2 |
| PTVA | ≤ 0.2 |
| PVSS | ≤ 0.2 |

| Variant | one-hybrid fitness for binding parS DNA |
| --- | --- |
| TCLA | ≤ 0.2 |
| TMNE | ≤ 0.2 |
| RHSY | 0.41 |
| VYQY | ≤ 0.2 |
| IYHM | ≤ 0.2 |
| WIKG | ≤ 0.2 |
| PVYY | ≤ 0.2 |
| LKGE | ≤ 0.2 |
| DNLC | ≤ 0.2 |
| SGGC | ≤ 0.2 |
| VDGI | ≤ 0.2 |
| RGKH | ≤ 0.2 |
| GRSR | ≤ 0.2 |
| FRTE | ≤ 0.2 |
| RYRV | ≤ 0.2 |
| EFAG | ≤ 0.2 |
| DRRC | ≤ 0.2 |
| WWQF | ≤ 0.2 |
| IETR | ≤ 0.2 |
| VINL | ≤ 0.2 |
| LYLT | ≤ 0.2 |
| LSTS | ≤ 0.2 |

| Variant | one-hybrid fitness for binding parS DNA |
| --- | --- |
| VTLI | ≤ 0.2 |
| RTMG | 1 |
| HCYC | ≤ 0.2 |
| PRRY | ≤ 0.2 |
| NLSS | ≤ 0.2 |
| QKQT | ≤ 0.2 |
| PVEV | ≤ 0.2 |
| TKDF | ≤ 0.2 |
| TASH | 0.232 |
| AAYY | ≤ 0.2 |
| QAQQ | ≤ 0.2 |
| QHNA | ≤ 0.2 |
| ATKS | ≤ 0.2 |
| DNTV | ≤ 0.2 |
| ITCC | ≤ 0.2 |
| CYHL | ≤ 0.2 |
| VCRT | ≤ 0.2 |
| YWNS | ≤ 0.2 |
| GITR | ≤ 0.2 |
| SVRT | ≤ 0.2 |
